The list shows a part of the results.
T1: UNK ZnF1-3 (human, UniProt Q9C0B0 31-174)
T1 sequence: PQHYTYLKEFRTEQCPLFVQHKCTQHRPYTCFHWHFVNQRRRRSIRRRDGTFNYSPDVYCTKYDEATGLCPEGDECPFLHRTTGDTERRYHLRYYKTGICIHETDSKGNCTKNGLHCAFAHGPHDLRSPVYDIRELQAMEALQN

B1: chr4:17845017:17845018:+_ENSG00000109805_ENST00000514176|hu_mus|hu_hu_hu_mus_False|68_88 (ssRNA)
RNA: GGGAGUUCUACAGUCCGACGAUCGCUCUCUUAACUUGUAUCUUCAUGAGAAAUUGGUGCAAGGUUAGUUUACUUUUUCUGUAGCGCAGCUGUUUUGGCUCGUCUGGGUAAUCUCAUCUUCAUUUCUGAUGGUGGUUCAUGAUCCAACAGAGGAUUGAGCAUCA
B2: chr2:61705333:61705334:-_ENSG00000082898_ENST00000401558|hu_hu|FALSE|FALSE (ssRNA)
RNA: GGGAGUUCUACAGUCCGACGAUCGUUGUCGACAAGCGACAGCACACACACACAAAAACAAAAAGAACUGUGUAAAAAUAACUAACUGUGUUCCCAUAUUUUUGAAGUCGCUUUACAAUGGGAUGAUAUGCACAUGAUCUUGCUCAACAGAGGAUUGAGCAUCA
B3: chr1:39494564:39494565:+_ENSG00000168653_ENST00000372967|hu_hu|hu_hu_hu_mus_True|8_48 (ssRNA)
RNA: GGGAGUUCUACAGUCCGACGAUCAUGCAUUCGCCUCAUCGUUUUGUACCGAAGCAAGCACUCUUCGAAGUCAUCGAACUCUAUCUUGCACUCUUUCUUCGCCCGGGUCCCACCGAUCCCGUGUGCACAUUCUAUCCACUCUUUCAACAGAGGAUUGAGCAUCA
B4: chr8:110352747:110352748:+_ENSG00000120533_ENST00000521662|hu_mus|hu_hu_hu_mus_True|18_18 (ssRNA)
RNA: GGGAGUUCUACAGUCCGACGAUCCAGGGCUCUGCCUUUUGGAGUGAUUUCAGCCACCAAGUCAUCAACAGUAACGUGUUCUAGUCCUUUUUCUUUAAUUACCUCUUUACAGUGUGCCUUCAACUGAUCCUUCCAGCCGCACUCCAACAGAGGAUUGAGCAUCA
B5: chr2:59185810:59185811:+_ENSMUSG00000026991_ENSMUST00000151452|mus_hu|FALSE|FALSE (ssRNA)
RNA: GGGAGUUCUACAGUCCGACGAUCCCCAUCCUUUUUAUAAAUGCUCCGGAGGUCCCGAUAUUGCCAUAAUGUAUUCAAGACCUGGGCUGCUGCCUUCACCACUUUCAGAGAUGAUCUGUCGCCCCUGCCUUUGGUUAUGUUCACCAACAGAGGAUUGAGCAUCA
B6: 28393741_28401348_240_CDS_ENSMUSG00000004056_ENSMUST00000051356|mouse|control|control (ssRNA)
RNA: GGGAGUUCUACAGUCCGACGAUCAGGGGCCUCGGGCCUCUCCUUAUACCCAAUGAAAGAUCCAUCACUCUUCAGAAGGAAGUACCGUGGCCUCCAGGUCUUGAUGUAUUCACCACGUUUGUGGAGCCAGCCUUCUUUGAUGACCAACAGAGGAUUGAGCAUCA
B7: chr1:225611761:225611762:-_ENSG00000143815_ENST00000272163|hu_mus|motif|central (ssRNA)
RNA: GGGAGUUCUACAGUCCGACGAUCCCAGGCCAUCGGCCUCUGACCACUUCACCCUCAACAAACUUCCUACUUGGCAUUUUCGGAAAUUAGUCUGGCCGCGCUCCGGCGGGAACUCCAGCCACUCCAGGACAGUCACCAGCAGCCCAACAGAGGAUUGAGCAUCA
B8: chr3:144353948:144353949:-_ENSMUSG00000037062_ENSMUST00000163279|mus_mus|FALSE|FALSE (ssRNA)
RNA: GGGAGUUCUACAGUCCGACGAUCAAAACUCCAAAGCCAAGAGACCCUAGUAAGGCCUAGUAUUUAAGUCAUCUGAUUCCUAUUGGGCAGCAAGGUAAAAAGGAGUUUUUACUUUAUUCUUUGGCUAUUGUAUCUAAUAAAUGACAACAGAGGAUUGAGCAUCA
B9: chr3:132390928:132390929:+_ENSG00000081307_ENST00000264991|hu_mus|motif|central (ssRNA)
RNA: GGGAGUUCUACAGUCCGACGAUCACUGGCUGCGCAGACGCCUUCUCGUUUCAGGGUUUUUUCAUCAAUAUUUGAAGCAACGGCAAGUGGUGGCGCACACGCGAAGCAAGCCGACUCUCCAGGGAUCAUCAGCUGGAUGUGCCCCAACAGAGGAUUGAGCAUCA
B10: 34195510_34199789_1269_3pUTR_ENSMUSG00000021936_ENSMUST00000111945|mouse|control|control (ssRNA)
RNA: GGGAGUUCUACAGUCCGACGAUCCUAAAGGAGACGGCUGCCCUCUUAUGACUCCAUUCUUAGUUCGUUCCUCCAAAUCCAUUACCUCCUUGUAUAUCAGUUCUUUCCACUCCUCUAUUGUGUGCUCCCUCUCAUCUAACUGCUCAACAGAGGAUUGAGCAUCA
B11: chr12:111890518:111890519:-_ENSG00000204842_ENST00000389154|hu_hu|motif|central (ssRNA)
RNA: GGGAGUUCUACAGUCCGACGAUCUUGGAUGUUACAAGAAAUCAACAUAUAUAUUUUAAAAACAAAAUAAAUGAAAUUCGGGUUUUCUGUGCUUCCAGUUGGUAGAAGCAGUAGAAGGGAGGAGGGAAUUUGGCCUUUCGGUUCCAACAGAGGAUUGAGCAUCA
B12: chr14:76904430:76904431:+_ENSMUSG00000022010_ENSMUST00000022587|mus_mus|mus_mus_mus_hu_True|1_88 (ssRNA)
RNA: GGGAGUUCUACAGUCCGACGAUCUGCAGCCAAAAACACCCUCGUGGCGGGAGGGAGGGAACACCAGCAGCCUUGUAUAAGCUAGAUAAAAUCUUCUGGCUUUCCGCAGCCCAGGGAGAAACAGAAAACGGCAGCCCUCGAGUGCAACAGAGGAUUGAGCAUCA
B13: chr9:45776876:45776877:-_ENSMUSG00000003131_ENSMUST00000172450|mus_mus|FALSE|FALSE (ssRNA)
RNA: GGGAGUUCUACAGUCCGACGAUCGAUCAGUUCAUGGAGGGGUUUGCAGAUCUUUGCAUAGCCCCCUCCUGUGAGAUGAAGAAAAUCAAACAUGUCGUGGCAGGAGAUGGCACCGUCCGAGUGCACGAAGCCCCCGUCUAUAUCCAACAGAGGAUUGAGCAUCA
B14: chr5:132424205:132424206:+_ENSG00000170606_ENST00000304858|hu_hu|FALSE|FALSE (ssRNA)
RNA: GGGAGUUCUACAGUCCGACGAUCGAUGGCACACUGCAAUGCACAGCCUCGAGUGACAGCUUCAUCAGCAUUUAAUGUUGUACUAAGUUCUUUACCGAAAAAUUUGCUGAUCUUCUCUUUUACCGCAGGGAUUCGUGUAGCACCCAACAGAGGAUUGAGCAUCA

Target: T1, UNK ZnF1-3
Experiment: nsRBNS (natural sequence RNA bind-n-seq); RBNS binding buffer (assumed for nsRBNS): 25 mM Tris pH 7.5, 150 mM KCl, 3 mM MgCl2, 0.01% Triton X-100, 500 ug/ml BSA, 20 U/ml SUPERase-In, 4 C; UNK is unkempt and MSI1 is Musashi-1; names of the RNAs are library labels; protein concentration not given here; high values mean tight binding

Compared with B1, B2 is higher in binding signal: 0.397 enrichment R for the first, 0.638 enrichment R for the second.

First: B3
Second: B4
The binding signal of the first is lower: 0.572 enrichment R for the first, 0.856 enrichment R for the second.

First: B5
Second: B6
The binding signal of the first is lower: 0.873 enrichment R for the first, 0.949 enrichment R for the second.

First: B7
Second: B8
The binding signal of the first is lower: 0.981 enrichment R for the first, 1.33 enrichment R for the second.

Compared with B9, B10 is lower in binding signal: 1.08 enrichment R for the first, 0.625 enrichment R for the second.

Compared with B11, B12 is higher in binding signal: 1.46 enrichment R for the first, 1.68 enrichment R for the second.

Going from B13 to B14, the binding signal rises from 0.848 enrichment R to 1.11 enrichment R.

From publication PMC12136788
